The record followed here is ChEMBL document CHEMBL4888484, “Replenishing the malaria drug discovery pipeline: Screening and hit evaluation of the MMV Hit Generation Library 1 (HGL1) against asexual blood stage Plasmodium falciparum ,using a nano luciferase reporter read-out” (2022).

In all, about 150,000 compounds went through this assay and about 540 (0.36%) showed an effect of 50% or more. The list shows a part of the results.

One may read the % Inhibition as the drop in the measured response relative to a control, in per cent.

The subject of the experiment is Plasmodium falciparum. Briefly: Primary screen in NF54 nanoGlo assay, in single point, at 2uM, 72h; a lower Z score goes with more inhibition. It counts as functional, Erythrocyte. As to conditions: timepoint 72 hour.
As for `CC(=O)Nc1cc(C(=O)NCC2CCCCC2)cc2ncn(CCc3ccccn3)c12`, the “% Inhibition” value is -8% and the Z score was found to be 1.03.
`COc1nn(C)cc1CNC(=O)[C@@H]1NCCOc2ccccc21`: the “% Inhibition” value is -6% and the Z score worked out at 1.25.
The like results for `COc1cc(=O)n2c(c1C(=O)Nc1ccc(Cl)c(F)c1)CCCC2` were, in that order, 0% and 0.05.
The like results for `CC1(C)[C@H](C(=O)Nc2ccc(OCc3ccccc3)cc2)CC[C@]1(C)C(=O)O` were, in that order, -12% and 1.62.
`c1ccc(CN2CCN(CCn3ccnc3C3CC3)CC2)cc1`: the “% Inhibition” value was found to be 2% and the Z score was -0.31.
As for `COc1cc(C)c(S(=O)(=O)N(C)c2cnn(C)c2)cc1Cl`, the “% Inhibition” value is -2% and the Z score is on record as 0.29.
`O=C(c1cn(C[C@@H]2CC(F)(F)CN2C(=O)c2ccc3[nH]ccc3c2)nn1)N1CCOCC1`: the “% Inhibition” value was 34% and the Z score was -3.84.
`O=C(Nc1ccccc1F)N1CCC(n2cnc3ccccc3c2=O)CC1`: the “% Inhibition” value is -5% and the Z score amounted to 0.62.
With `COc1cnc(-c2noc(C3(C#N)CCCCC3)n2)cn1`, the “% Inhibition” value is 34% and the Z score was -3.87.
As for `COc1ccccc1CC(=O)NC1CC1`, the “% Inhibition” value was found to be 0% and the Z score is -0.04.
Take `CN(C)C1CCN(C2CCCN(CC(C)(C)C)C2=O)C1` (stereo unspecified): the “% Inhibition” value is listed as -6% and the Z score was found to be 0.83.
As for `COc1ccc(CN2Cc3nc[nH]c3C[C@H]2c2nc(-c3ccccn3)no2)cc1`, the “% Inhibition” value stood at 23% and the Z score is -2.72.
`COc1ccc(-c2cc(N3CCC[C@H](NC(=O)c4cnccn4)C3)[nH]n2)cc1`: the “% Inhibition” value was -18% and the Z score came to 1.84.
On the same counts, the results for `C[C@@H](C(=O)NCCc1ccc(S(N)(=O)=O)cc1)n1c2ccccc2c2cnn(C)c(=O)c21` are 2% and -0.37.
Consider `CCC(CC)N(CCOC)S(=O)(=O)c1cc(Br)ccc1Br`, for which the “% Inhibition” value is listed as -1% and the Z score is 0.12.
For the molecule `Cc1cnccc1CNC(=O)c1coc(COc2ccccc2)n1`, the “% Inhibition” value is -9% and the Z score is recorded as 1.26.
For `CC(C)N1CCN(CCN(C)c2ccc([C@H]3CC[C@H](N(C)C(=O)c4ccc(Cl)cc4)CC3)cc2)CC1`, the “% Inhibition” value came to 3% and the Z score is listed as -0.39.
`CCn1cc(NC(=O)CC2CC3CCC2C3)cn1` (stereo unspecified): the “% Inhibition” value is -6% and the Z score is recorded as 1.05.
In the case of `C[C@@H](CCc1ccccc1)NC(=O)c1cc2c(Cl)ccc3c2n1CCO3`, the “% Inhibition” value is reported as 37% and the Z score is on record as -1.1.
For the molecule `CC(C)N(CCO)Cc1c[nH]nc1-c1ccc(-c2ccccc2)cc1`, the “% Inhibition” value is reported as -3% and the Z score turned out to be 0.5.
As to `CCOC(=O)C1CCC(N2CCN(C3CCC(C(C)C)CC3)CC2)CC1` (stereo unspecified), the “% Inhibition” value was -3% and the Z score came to 0.43.
With `C=CCn1ccnc1-c1ccccc1OCC`, the “% Inhibition” value is listed as 4% and the Z score was -0.73.
Take `COc1cc(Cl)c(C)cc1NC(=O)CN1CC[C@H](O)C1`: the “% Inhibition” value was -5% and the Z score was determined as 0.93.
For `CC(NC1CCN(c2ccc(Cl)c(F)c2)C1=O)C1CCN(CC(F)(F)F)CC1` (stereo unspecified), the “% Inhibition” value was -4% and the Z score is listed as 0.48.
As to `CC(C)(C)OC(=O)c1c(NC(=O)[C@@H]2CCCO2)nc2n1CCCC2`, the “% Inhibition” value is -15% and the Z score amounted to 2.89.
For the molecule `CCN1CC2(CCN(C(=O)c3ccon3)CC2)C[C@@H](c2ccccc2)C1=O`, the “% Inhibition” value is -6% and the Z score came out at 1.04.
On to `CCCCn1nc(CC)nc1Cn1cccnc1=O`, for which the “% Inhibition” value was -1% and the Z score is 0.18.
The like results for `Nc1ccc(C(=O)N2CCCC[C@@H]2CCc2ccccn2)cn1` were, in that order, 3% and -0.43.
Turning to `O=C(CN1CCC[C@H]1C(=O)OCc1ccccc1)Nc1nncs1`, the “% Inhibition” value is -17% and the Z score came out at 2.37.
Take `O=C(N[C@H]1[C@@H]2COC[C@@H]21)c1c(Cl)cncc1Cl`: the “% Inhibition” value amounted to 1% and the Z score was -0.15.
As to `CCNC(=O)c1ccc(N(C)Cc2ccc(C)o2)nn1`, the “% Inhibition” value was -10% and the Z score was 1.32.
The like results for `O=C(Nc1c(F)cccc1Oc1ccccc1)[C@@H]1COCCO1` were, in that order, -12% and 1.76.
As for `Cc1cc(=O)[nH]c(C)c1C(=O)NC(c1cnn(C)c1)[C@H]1C[C@H](O)C1` (stereo partly specified), the “% Inhibition” value worked out at 2% and the Z score was -0.41.
On to `Cn1ncc2c1CCCC2NCC(c1ccccc1)C(C)(C)CO` (stereo unspecified), for which the “% Inhibition” value is given as -13% and the Z score turned out to be 2.43.
Consider `Cc1cc(C(=O)NCc2cncc(C3CC3)c2)n(C)n1`, for which the “% Inhibition” value is on record as -18% and the Z score is recorded as 2.09.
For the molecule `Clc1ccc([C@@H](NC2CCCCC2)c2ncon2)cc1`, the “% Inhibition” value is given as -11% and the Z score was determined as 1.42.
On the same counts, the results for `CC(C)NC(=O)N1CC(c2nc(-c3ccncc3)no2)C1` are -10% and 1.96.
On the same counts, the results for `C[C@H](NC(=O)C1(C(F)(F)F)CCC1)c1ccc(Cl)cn1` are 7% and -0.99.
For the molecule `COc1ccc(-c2nn(C(=O)OC(C)(C)C)c(C3CC3)c2N)cc1`, the “% Inhibition” value is listed as -4% and the Z score turned out to be 0.5.
On the same counts, the results for `COCC[C@H]1CN(C(=O)c2ccn(C)c2C)CCO1` are 5% and -0.67.
Take `CCCCOCC(=O)N1CCN(c2nncc3ccccc23)CC1`: the “% Inhibition” value is recorded as -9% and the Z score is on record as 0.87.
Consider `CC1CCN(C(=O)c2ccc(CN3C(=O)CNC3=O)cc2)C2CCCCC12` (stereo unspecified), for which the “% Inhibition” value was -6% and the Z score amounted to 1.09.
Take `Cn1nc(-c2ccccc2NC(=O)c2cc(OCc3ccccc3)ncn2)ccc1=O`: the “% Inhibition” value is given as -9% and the Z score is reported as 1.72.
